Source: the supplement of paper PMC10126150
Values marked as one replicate rest on one cluster of the flow cell; about a third of the high ones do not repeat.

Test system: ATP
Assay: switch fluorescence ratio, 500 uM ATP over buffer (Cy3 cluster intensity, sum of 5 cycles each) (fold (ratio)); higher = stronger signal-on switching upon ATP binding; sequences stand for … in TCGTCGGCAGCGTCAGATGTGTATAAGAGACAGTTTTTTTTTTTTTTTTTTTTTTTTT…TC
Conditions: aptamer strand: ATP DNA aptamer (quencher-CACCTGGGGGAGTATTGCGGAGGAAGG + anchor), 100 nM annealed; ATP concentration: 500 uM; one replicate
Summary of the method: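 For every switch-domain sequence, the fluorescence ratio is the mean of per-cluster values, each being summed target-cycle Cy3 intensity over summed buffer-cycle Cy3 intensity. Clusters outside 100-1000 RFU were excluded. On a modified Illumina MiSeq flow-cell, the Cy3-labelled switching-strand clusters were annealed to 100 nM quencher-labelled ATP aptamer, imaged in selection buffer and then after 15 min with 500 uM ATP at 22 °C. Five such cycles were run, with NaOH stripping and re-annealing between them.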
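Also: ATP exposure 15 min at 22 °C before imaging.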

Sequence	switch fluorescence ratio
TGGGTGGCTT	0.962
GGGCTTACCG	0.967
AAACTAATTG	0.996
GTAAGTGGGA	1.06
AAGTTCTGTT	0.98
TATTGCCTAT	1.02
TACTTGTCT	1.03
GGTATGTATT	1
TATTCTACA	1.02
GGTTCCACGG	1
GCGTCAATCA	1.1
CATAAAGTTG	1.04
CGTGAGATGG	0.978
AAAAGGATGC	1.07
GTAGGAGCTG	0.997
GATAGATCAA	1.03
ATAGAACGTG	1.01
GTCGAGGGTG	1.01
ATATGTATGT	1.01
GATCATCTCA	0.968
ATGAGTGGAC	0.981
AGTAGACTTT	0.903
GGTAACCGCG	1.08

Sequence	switch fluorescence ratio
CGTGTGTGTG	0.998
GTGAATTTAA	0.993
CGCCAGCTGA	1.15
GACGCACTAT	2.73
TGTTGGACG	1
TGTTTTGAGG	0.993
TCGTATACT	1.62
TTTCTAGCAT	1.07
TTCCTGACTA	1.01
AGATATTCTA	1.01
CAGAGTACTC	1
ACGTCGGGTT	1.13
ACCGAGCTTG	1.03
ACGGGGCTGA	1.04
TTAATGCCAG	1.03
TGCTCGGCAA	3.16
GATGCACAGC	1.08
CGACCGAGC	1.51
TAGGACTTGA	0.994
AAGAGACTCA	1.05
ATTCGTAGCT	1.07
GCTTCGTCAA	2.02
AAACGTGCC	1.22

Sequence	switch fluorescence ratio
TTAAGGCTGC	1.14
CGTACTATTG	0.999
AAATGGGTAA	0.94
ATCGGGAGTA	0.958
ATACCGGGAC	1.17
TTCATATGGG	0.969
GAGTTAGCC	1.06
GGTTATTTTC	1.03
TGAAGGGTCC	0.988
AGGGCGGGAC	1.01
TATCTGGTT	0.96
TCGCAGCGTT	1.2
CACAGAAGT	1.01
CGCCGTCGCA	0.999
TGACGTCTGT	0.95
GGGTGGTCCA	0.998
TTGGTCAGCA	1.1
TTCGGGTCAT	1.01
ATCAGAAAG	1
TAACTCACGC	1.14
TGCCGATTCC	1.09
AGAACGCGTT	0.968
AATTTAGAGC	1.01

Sequence	switch fluorescence ratio
TACACGAACA	1.41
TGCACAGATA	0.958
AAGTTCCCGG	0.994
ACGTATATAA	1.14
TAGGACATTG	1.09
TAGCTGAACC	0.95
AAGTCGACT	1.02
CTATGCTGGG	0.945
TCTCGAAGCG	1.05
AAGCCGAGAG	0.963
CGCGATGGCA	1.03
GACGAACGTG	1.16
AAACGGAGTA	0.994
CCAGCGTGTC	1.13
GGTTATTGTT	0.982
AGCTGTGAAT	0.963
TATTCAACCT	1.74
TATCACACCG	1
TGGTGGGA	0.966
AGCCTCGTTG	1
TAGGGCTCCA	1.02
GGATTTATTA	1
GTTATGCGAC	0.993

Sequence	switch fluorescence ratio
CGGTCGTCAC	1.03
GGCTAGTAGT	0.952
TGCCCGATGA	0.964
TCTTGGGTGG	0.999
CGGCGAGGGG	1.02
CGGTACCCAG	1.03
CCATCAGCGA	2.34
TGATTAAGGA	0.981
ACGAGATAGA	0.99
TATGCATATC	1.06
TTTGTATAGA	0.989
GGGCGGGCGA	1.05
TGCCGTTTGA	1.01
TAACATGTT	0.995
GGATGATTGA	0.916
ACGCATCGCT	1.08
GTGGTTCTTA	0.968
GAAGCACTGA	1.2
CATTACAGGA	1.09
TTTTTTTCA	0.983
ATCTGGTCTT	0.998
AGTCTCTATA	1.03
AAACTAGTA	0.958

Sequence	switch fluorescence ratio
TGATTGTTT	0.965
GGCACCGTGG	0.981
TATTGATTTT	1.04
CATAGGCAGA	1.04
ATATACCGAG	1.11
AAAATCGTGC	0.981
ATGTTAGTTC	1.04
CGCCAAGCC	1.84
AAGATAGTG	1.01
CTCGGACGTA	0.929
TTCCCCGATT	1.12
CCCCGTGGGG	0.94
CTTAGCAGGT	1.02
GAGAACGAAC	1.19
TGACTGGATG	1.03
ACCTTCTGTG	1.56
TATATACTTC	1.08
TGACGTTTGG	0.968
ACATAACAC	1.15
ACAGAGGTAA	1.02
GGATAAGAGT	0.967
AAGTTGGATC	0.981
AGTCCTATT	0.968

Sequence	switch fluorescence ratio
CCAAATTCT	1.02
AAAGATTCCT	1.03
GGTGTGGCAC	1.04
ATCAGATTTC	1.01
TTGCTTTCAG	0.948
AGCAACACCG	1.02
CGGCCGAACC	1.01
CGATTGTACA	1.01
TGCACGGGCT	1
TTGAAGCGAA	1.18
TGGTCTAAC	0.969
TAGGGCAAG	1
CGCTCAATGT	1.06
GCAAACAGAC	1.04
GGAACCGGCG	0.993
TATACCGCAG	3.75
AATAGAGGTA	0.983
GCGATTATGC	0.972
TGCTCGCCCG	1.01
CTGCATGTGT	1.04
